# According to the supplement of paper PMC8728848:
# This is one part of the list.
# Tests used:
# Test in all cases: glycan array binding signal (z-score within array); higher = stronger binding
# Conditions in all cases: glycan notation: IUPAC condensed, linker removed; mutation: D22R
# [1] = biological target: Fuc(a1-2)Gal(b1-4)GlcNAc(b1-3)Gal(b1-4)GlcNAc(b1-2)Man(a1-3)[Fuc(a1-2)Gal(b1-4)GlcNAc(b1-3)Gal(b1-4)GlcNAc(b1-2)Man(a1-6)]Man(b1-4)GlcNAc(b1-4)GlcNAc
# How it was run: (§1)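 Glycan array data came from 3228 arrays in the Consortium for Functional Glycomics database, and only arrays with an available protein sequence were kept. Glycan names were put into IUPAC-condensed notation, and columns mapping to the same glycan were averaged. The binding signal is a within-array Z-score, averaged across arrays of one protein sequence run at different concentrations or buffers and across linkers. A negative Z-score can be read as non-binding.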
# [2] = biological target: Fuc(a1-2)Gal(b1-4)GlcNAc(b1-3)Gal(b1-4)GlcNAc(b1-3)Gal(b1-4)GlcNAc
# How it was run: as §1
# [3] = biological target: Fuc(a1-2)Gal(b1-4)GlcNAc(b1-3)GalNAc
# How it was run: as §1
# [4] = biological target: Fuc(a1-2)Gal(b1-4)GlcNAc(b1-3)[Fuc(a1-2)Gal(b1-4)GlcNAc(b1-6)]GalNAc
# How it was run: as §1
# [5] = biological target: Fuc(a1-2)Gal(b1-4)GlcNAc(b1-3)[Fuc(a1-3)[Gal(b1-4)]GlcNAc(b1-6)]Gal(b1-4)Glc
# How it was run: as §1
# [6] = biological target: Fuc(a1-2)Gal(b1-4)GlcNAc(b1-6)GalNAc
# How it was run: as §1
# [7] = biological target: Fuc(a1-2)Gal(b1-4)GlcNAc6S
# How it was run: as §1
# [8] = biological target: Fuc(a1-2)Gal(b1-4)[Fuc(a1-3)]GlcNAc
# How it was run: as §1
# [9] = biological target: Fuc(a1-2)Gal(b1-4)[Fuc(a1-3)]GlcNAc(b1-2)Man(a1-3)[Fuc(a1-2)Gal(b1-4)[Fuc(a1-3)]GlcNAc(b1-2)Man(a1-6)]Man(b1-4)GlcNAc(b1-4)[Fuc(a1-6)]GlcNAc
# How it was run: as §1
# [10] = biological target: Fuc(a1-2)Gal(b1-4)[Fuc(a1-3)]GlcNAc(b1-2)[Fuc(a1-2)Gal(b1-4)[Fuc(a1-3)]GlcNAc(b1-4)]Man(a1-3)[Fuc(a1-2)Gal(b1-4)[Fuc(a1-3)]GlcNAc(b1-2)Man(a1-6)]Man(b1-4)GlcNAc(b1-4)GlcNAc
# How it was run: as §1
# [11] = biological target: Fuc(a1-2)Gal(b1-4)[Fuc(a1-3)]GlcNAc(b1-3)Gal(b1-4)[Fuc(a1-3)]GlcNAc
# How it was run: as §1
# [12] = biological target: Fuc(a1-2)Gal(b1-4)[Fuc(a1-3)]GlcNAc(b1-3)Gal(b1-4)[Fuc(a1-3)]GlcNAc(b1-3)Gal(b1-4)[Fuc(a1-3)]GlcNAc
# How it was run: as §1
# [13] = biological target: Fuc(a1-2)Gal(b1-4)[Fuc(a1-3)]GlcNAc(b1-3)GalNAc
# How it was run: as §1
# [14] = biological target: Fuc(a1-2)Gal(b1-4)[Fuc(a1-3)]GlcNAc(b1-3)[Neu5Ac(a2-6)Gal(b1-4)GlcNAc(b1-6)]Gal(b1-4)Glc
# How it was run: as §1
# [15] = biological target: Fuc(a1-2)Gal3S(b1-4)GlcNAc
# How it was run: as §1
# [16] = biological target: Fuc(a1-2)Gal6S(b1-3)GlcNAc
# How it was run: as §1
# [17] = biological target: Fuc(a1-2)Gal6S(b1-3)GlcNAc6S
# How it was run: as §1
# [18] = biological target: Fuc(a1-2)Gal6S(b1-4)Glc
# How it was run: as §1
# [19] = biological target: Fuc(a1-2)Gal6S(b1-4)Glc6S
# How it was run: as §1
# [20] = biological target: Fuc(a1-2)[Gal(a1-3)]Gal
# How it was run: as §1
# [21] = biological target: Fuc(a1-2)[Gal(a1-3)]Gal(b1-3)GalNAc
# How it was run: as §1
# [22] = biological target: Fuc(a1-2)[Gal(a1-3)]Gal(b1-3)GalNAc(b1-3)Gal(a1-4)Gal(b1-4)Glc
# How it was run: as §1
# [23] = biological target: Fuc(a1-2)[Gal(a1-3)]Gal(b1-3)GlcNAc
# How it was run: as §1
# [24] = biological target: Fuc(a1-2)[Gal(a1-3)]Gal(b1-3)GlcNAc(b1-2)Man(a1-3)[Fuc(a1-2)[Gal(a1-3)]Gal(b1-3)GlcNAc(b1-2)Man(a1-6)]Man(b1-4)GlcNAc(b1-4)GlcNAc
# How it was run: as §1
# [25] = biological target: Fuc(a1-2)[Gal(a1-3)]Gal(b1-3)GlcNAc(b1-2)Man(a1-3)[Fuc(a1-2)[Gal(a1-3)]Gal(b1-3)GlcNAc(b1-2)Man(a1-6)]Man(b1-4)GlcNAc(b1-4)[Fuc(a1-6)]GlcNAc
# How it was run: as §1
# [26] = biological target: Fuc(a1-2)[Gal(a1-3)]Gal(b1-3)GlcNAc(b1-3)GalNAc
# How it was run: as §1
# [27] = biological target: Fuc(a1-2)[Gal(a1-3)]Gal(b1-3)GlcNAc(b1-6)GalNAc
# How it was run: as §1
# [28] = biological target: Fuc(a1-2)[Gal(a1-3)]Gal(b1-4)Glc
# How it was run: as §1
# [29] = biological target: Fuc(a1-2)[Gal(a1-3)]Gal(b1-4)GlcNAc
# How it was run: as §1
# [30] = biological target: Fuc(a1-2)[Gal(a1-3)]Gal(b1-4)GlcNAc(b1-2)Man
# How it was run: as §1
# [31] = biological target: Fuc(a1-2)[Gal(a1-3)]Gal(b1-4)GlcNAc(b1-2)Man(a1-3)[Fuc(a1-2)[Gal(a1-3)]Gal(b1-4)GlcNAc(b1-2)Man(a1-6)]Man(b1-4)GlcNAc(b1-4)GlcNAc
# How it was run: as §1
# [32] = biological target: Fuc(a1-2)[Gal(a1-3)]Gal(b1-4)GlcNAc(b1-2)Man(a1-3)[Fuc(a1-2)[Gal(a1-3)]Gal(b1-4)GlcNAc(b1-2)Man(a1-6)]Man(b1-4)GlcNAc(b1-4)[Fuc(a1-6)]GlcNAc
# How it was run: as §1
# [33] = biological target: Fuc(a1-2)[Gal(a1-3)]Gal(b1-4)GlcNAc(b1-3)GalNAc
# How it was run: as §1
# [34] = biological target: Fuc(a1-2)[Gal(a1-3)]Gal(b1-4)GlcNAc(b1-3)[Fuc(a1-2)[Gal(a1-3)]Gal(b1-4)GlcNAc(b1-6)]GalNAc
# How it was run: as §1
# [35] = biological target: Fuc(a1-2)[Gal(a1-3)]Gal(b1-4)GlcNAc(b1-6)GalNAc
# How it was run: as §1
# [36] = biological target: Fuc(a1-2)[Gal(a1-3)]Gal(b1-4)[Fuc(a1-3)]Glc
# How it was run: as §1
# [37] = biological target: Fuc(a1-2)[Gal(a1-3)]Gal(b1-4)[Fuc(a1-3)]GlcNAc
# How it was run: as §1
# [38] = biological target: Fuc(a1-2)[Gal(a1-3)]Gal(b1-4)[Fuc(a1-3)]GlcNAc(b1-3)GalNAc
# How it was run: as §1
# [39] = biological target: Fuc(a1-2)[Gal(a1-4)]Gal(b1-4)GlcNAc
# How it was run: as §1
# [40] = biological target: Fuc(a1-2)[GalNAc(a1-3)]Gal
# How it was run: as §1
# [41] = biological target: Fuc(a1-2)[GalNAc(a1-3)]Gal(b1-3)GalNAc(a1-3)[Fuc(a1-2)]Gal(b1-4)GlcNAc
# How it was run: as §1
# [42] = biological target: Fuc(a1-2)[GalNAc(a1-3)]Gal(b1-3)GalNAc(b1-3)Gal(a1-4)Gal(b1-4)Glc
# How it was run: as §1
# [43] = biological target: Fuc(a1-2)[GalNAc(a1-3)]Gal(b1-3)GlcNAc
# How it was run: as §1
# [44] = biological target: Fuc(a1-2)[GalNAc(a1-3)]Gal(b1-3)GlcNAc(b1-2)Man(a1-3)[Fuc(a1-2)[GalNAc(a1-3)]Gal(b1-3)GlcNAc(b1-2)Man(a1-6)]Man(b1-4)GlcNAc(b1-4)GlcNAc
# How it was run: as §1
# [45] = biological target: Fuc(a1-2)[GalNAc(a1-3)]Gal(b1-3)GlcNAc(b1-2)Man(a1-3)[Fuc(a1-2)[GalNAc(a1-3)]Gal(b1-3)GlcNAc(b1-2)Man(a1-6)]Man(b1-4)GlcNAc(b1-4)[Fuc(a1-6)]GlcNAc
# How it was run: as §1
binder,measurement,setting,value
MpL2 (Macrolepiota procera) (protein) MSTQVSSGQTYKITNVKAGTVIRLSGEDNKSIIGYPYHSGKNQQWTFNWTGKAWTLRSASSGSYLGIEGTPADGTRLVAVNDPFEWHIWRDEANENAFRIFVPFTNYNLDLSGYGDTTPGTPVQLWWTWEGLHQTWTIDRP,glycan array binding signal (z-score),[1],-0.172
same,glycan array binding signal (z-score),[2],-0.053
same,glycan array binding signal (z-score),[3],-0.073
same,glycan array binding signal (z-score),[4],0.046
same,glycan array binding signal (z-score),[5],0.805
same,glycan array binding signal (z-score),[6],-0.275
same,glycan array binding signal (z-score),[7],-0.327
same,glycan array binding signal (z-score),[8],-0.054
same,glycan array binding signal (z-score),[9],0.51
same,glycan array binding signal (z-score),[10],0.835
same,glycan array binding signal (z-score),[11],-0.078
same,glycan array binding signal (z-score),[12],-0.242
same,glycan array binding signal (z-score),[13],0.928
same,glycan array binding signal (z-score),[14],-0.447
same,glycan array binding signal (z-score),[15],0.107
same,glycan array binding signal (z-score),[16],-0.339
same,glycan array binding signal (z-score),[17],0.5
same,glycan array binding signal (z-score),[18],0.081
same,glycan array binding signal (z-score),[19],-0.429
same,glycan array binding signal (z-score),[20],-0.752
same,glycan array binding signal (z-score),[21],-0.003
same,glycan array binding signal (z-score),[22],-0.48
same,glycan array binding signal (z-score),[23],-0.127
same,glycan array binding signal (z-score),[24],-0.327
same,glycan array binding signal (z-score),[25],-0.205
same,glycan array binding signal (z-score),[26],-0.191
same,glycan array binding signal (z-score),[27],-0.33
same,glycan array binding signal (z-score),[28],0.346
same,glycan array binding signal (z-score),[29],-0.343
same,glycan array binding signal (z-score),[30],-0.047
same,glycan array binding signal (z-score),[31],-0.076
same,glycan array binding signal (z-score),[32],-0.307
same,glycan array binding signal (z-score),[33],0.092
same,glycan array binding signal (z-score),[34],-0.178
same,glycan array binding signal (z-score),[35],0.319
same,glycan array binding signal (z-score),[36],0.174
same,glycan array binding signal (z-score),[37],0.262
same,glycan array binding signal (z-score),[38],0.532
same,glycan array binding signal (z-score),[39],0.005
same,glycan array binding signal (z-score),[40],-0.075
same,glycan array binding signal (z-score),[41],-0.065
same,glycan array binding signal (z-score),[42],-0.533
same,glycan array binding signal (z-score),[43],0.022
same,glycan array binding signal (z-score),[44],-0.536
same,glycan array binding signal (z-score),[45],0.039
